# The RNAGym collection of RNA variant scans (doi:10.7554/elife.90254)
# Read counts are not given, so values of variants with three or more changes are uncertain.
# B1: LINE1-full (parent)
# chain: UACGUAGGUGGUUUUCCCCUGAUAGUGCUAAGGGGGCCUGGAAGUUUGGACUGGGCAGAGCUCAACACAGCGUGGCAAAGUGGCUGUGGCUAGACUGCCUCUCUGGAUUCCUCGUCACUCAGCAGGGCAUCUCUGAGAGAAAUGCC
# Variants of: B1
# Assay: self-cleavage, relative activity (ratio to wild type); higher = more cleavage; in vitro, sequencing; the parent is a self-cleaving ribozyme
row,Variant,self-cleavage
1,UACGUAGGUAGUUUUCCCCUGAUAGUGCUAAGGGGGCCUGGAAGUUUGGUCUGGGCAGAGCCCAACACAGCGUGGCAAAGUGGCUGUGGCCAGACUGCCCCUCUGGAUUCCUCGUCACUCAGCAGGGCAUCUCUGAGAGAAAUGCC [G10A A50U U62C U91C U100C],0
2,UACGUAGGUAGUUUUCCCCUGAUAGUGCUAAGGGGGCCUGGAAGUUUGGACAGGGCAGAGCUCAACACUGCGAGGCAAAGUGGCUGUGGCUAGACUGCCUCUCUGGAUUCCUCGUCACUCAGCAGGGCAUCUCUGAGAGAAAUGCC [G10A U52A A69U U73A],0.07
3,UACGUAGGUAGUCUUCCCCUGAUAGUGCUAAGGGGGCCUGGGAGUUUGGACUGGGCAGAGCUCAACACAGCGUGGCAAAGUGGCUGUGGCUAGACUGCCUCUCUGGAUUCCUCGUCACUCAGCAGGGCAUCUCUGAGAGAAUUGCC [G10A U13C A42G A142U],0.38
4,UACGUAGGGGGUUUUCCCCUGAUAGUGCUAAGGGGGCCUGGAAGUUUGGACUGGGCAGAGCUCAACACAGCGAGGCAAAGUGGCUGUGGCUAGACUGCCUCUCUGGAUCCCUCGUCACUCAGCAGGGCAUCCCUGAGAGAAAUGCC [U9G U73A U109C U132C],1.36
5,UACGUAGGGGGUUUUCCCCUGAUAGUGCUAAGGGGGCCUGGAAGUUUGGACUGGGCAGAGCCCAACACAGCGUGGCAAAGUGGCUGUGGCUAGACUGCCUCUCUGGAUUCCUCGUCACCAAGCAGGGCAUCUCUGAGAGGAAUGCC [U9G U62C U119C C120A A140G],0
6,UACGUAGGUAGUUUCCCCCUGAUAGUGCUAAGGGGGCCUGGUAGUUUGGACUGGGCAGAGCUCAACACAGCGUGGCAAAGCGGCUGUGGCUAGGCUGCCUCUCUGGAUUCCUCGUCACUCAGCAGGGCAUCUCUGAGAGAAAUGCC [G10A U15C A42U U81C A94G],0
7,UACGUAGGUAGUUUUCCCCUGUCAGUGCUAAGGGGGCCUGGAAGUUUGGACUGGGCAGAGCUCAACACAGCGUGGCAAAGUGGCUGUGGCUAGACUGCCUCUCUGGAUUCCUCGUCACUCAGCAGGGCAUCUCUGAGAGAAAUGCC [G10A A22U U23C],1.01
8,UACGUAGGUAGUUUUCCCCUGAUAGUGCUAAGGGGGCCUGGAAGUUUGGACUGGGCAGUGCUCAACCCAGCGUGGCAAAGUGGCUGUGGCUAGACUGCCUCUCUGGAUUCCUCGUCACUCAGCAGGGCACCUCUGAGAGAAAUGCC [G10A A59U A67C U130C],0.26
9,UACGUAGGUAGUUUUCCCCUGAUAGUGCUAAGGGGGCCAGGAAGUUUGGACUGGGCAGAGCUCAACACAGCGCGGCAAAGUGGCUGUGGCCAGACUGCCUCUCUGGAUUCCUCGUCACUCAGCAGGGCAUCUCUGAGAGAAAUGCC [G10A U39A U73C U91C],0.39
10,UACGUAGGGGGUUCUCCCCUGAUAGUGCUAAGGGGGCCUGGAAGUUUGGACUGGGCAGAGCUCAACACAGCGUGGCAAAGUGGCUGUGGCUAGACUGCCUCUCUGGAUCCCUCGUCACUCAGCAGGGCAUCUCUGAGAGAAAUGCC [U9G U14C U109C],0.93
11,UACGUAGGGGGUUUACCCCUGAUAGUGCUAAGGGGGCCUGGAAGUUUGGACUGGGCAGAGCUCAGCACAGCGUGGCAAAGUGGCUGUGGCUAGACUGCCUCUCUGGAUUCCUCGUCACUCAGCAGGGCAUCUCUGAGAGAAAUGCC [U9G U15A A65G],0.28
12,UACGUAGGUAGUUUUCCCCUGAUAGUGCUAAGGGGGCCUGGAAGUUUGGACUGGGCAGAGCUCAACACGGCGUGGCAAAGUGGCUGUGGCUAGACUGCCUCUCUGGAUUCCUCGUCACUCAGCAGGGCAUCACUGAGAGAAAUGCC [G10A A69G U132A],0.44
13,UACGUAGGGGGUUUUCCCCUGAUAGCGCUAAGGGGGCCUGGAAGUUAGGACUGGGCAGAGCUCAACACAGCGUGGCAAAGUGGCUGAGGCUAGACUGCCUCUCCGGAUUCCUCGUCACUCAGCAGGGCAUCUCUGAGAGAAAUGCC [U9G U26C U47A U87A U104C],0.79
14,UACGUAGGGGGUUUUCCCCUGAUAGUGCUAAGGGGGCCUGGAAGUUUGGACUGGGCAGAGCUCAACACAGCGUGGCAAAGUGGCUGUGGCUAGACUGCCACUCUGGAUUCCUCGUCACUCAGCAGGGCGUCUCUGAGAGAAAUGCC [U9G U100A A129G],0.77
15,UACGUAGGUAGUUUUCCCCUGAUAGUGCUAAGGGGGCCUGGGAGUUCGGACUGGGCAGAGCUCAACACAGCGUGGCAAAGUGGCUGUGGCUAGACUGCCUCUCUGGAUUCCUCGUCACUCAGCAGGGCAUCUCUGAGAGAAAUGCC [G10A A42G U47C],1.19
16,UACGUAGGGGGUUUUCCCCUGAUAGUGCUAAGGGGGCCUGGAAGUUUGGACUGGGCAGAGCUCAACACAGCGUGGCAAAGUGGCUGCGGCUAGACUGCCUCUCUGGAUUCCUCGUCACUCAGCAGGGCAUCUCUGAGAGAGAUGCC [U9G U87C A141G],0.35
17,UACGUAGGUAGUUUUCCCCUGAUAGUGCUAAGGGGGCCUGGAAGUUUUGACUGGGCAGAGCUCAACACAGCGUGGCAGAGUGGCUGUGGCUAGACUGCCUCUCUGGAUUCCUCGUCACUCAGCAGGGCAUCUCUGAGAGAAAUGCC [G10A G48U A78G],1.06
18,UACGUAGGUAGUCUUCCCCUGAUAGUGCUAAGGGGGCCUGGAAGUUUGGACUGGGCAGAGCCCAACACAGCGUGGCAAAGUGGCCGUGGCUAGACUGCCUCUCUGGAUUCCUCGUCACUCAGCAGGGCAUCUCUGAGAGAGAUGCC [G10A U13C U62C U85C A141G],0
19,UACGUAGGUAGUUUUCCCCUGAUAGUGCUAAGGGGGCCUGGAAGUUUGGACUGGGCAGAGCUCUACACAGCGUGGCAAAGUGGCUGUGGCUAGACUGCCUCUCUGGUUUCCUCGCCACUCAGCAGGGCAUCUCUGAGAGAAAUGCC [G10A A64U A107U U115C],0.47
20,UACGUAGGUAGUUUUCCCCUGAUAGUGCUUAGGGGGCCUGGAAGUUUGGACUGGGCAGAGCUCAACACAGCGUGGCAAGGUGGCUGUGGCUAGACUGCCUCUCUGGAUUCCUCGUCACUCAGCAGGGCAUCUCUGAGAGAAAUGCC [G10A A30U A79G],1.6
